# The list shows a part of the results. At the low end of the ranking the order means little.
# Test system: MYC (p64) + MAX (p21), in MYC:MAX
# Test: protein-binding microarray (anti-MAX antibody)
# Settings: PBM: 15 mM Tris-HCl pH 7.5, 100 mM KCl, 0.075% NP40, 7.5 mM beta-mercaptoethanol, 375 ng/ul BSA, 8 ng/ul poly(dA-dT):(dA-dT), 550 ng complex, 60 min, room …; high values mean tight binding; double strand, one strand shown; sequences stand for … in CCGGC…TTAATAGCTAAGATTACTATATCGACG
row,Sequence,binding signal (log2 normalized fluorescence)
1,TGATTTTAAGTA,0.00855
2,TGATTCCTGGTA,-0.0648
3,TGAACTCCTGTA,0.19
4,TGAAGAGTTGTA,0.0698
5,TGAATTGTGGTA,0.192
6,TGAGATCCTGTA,0.0331
7,GCACACGTGGTA,0.906
8,TGACACGACGTA,0.301
9,TGAACATACGTA,0.202
10,TGAGGGCCAGTA,0.0101
11,TGAGGGCATGTA,0.342
12,TCGGTCTTCCTC,-0.312
13,TGACGGAATGTA,0.12
14,TGACCCTGTGTA,0.121
15,TGAATACTCGTA,0.00762
16,TGATGGTGCGTA,0.0914
17,TTCTTTATCACG,0.329
18,TGAAACAGAGTA,0.0767
19,TGATAGTCAGTA,-0.00805
20,TGAAGGTGGGTA,0.328
21,TGATTTGATGTA,-0.229
22,TGAGGCAAGGTA,0.281
23,TGAGCTTTGGTA,-0.2
24,TGGCACACGGTT,0.419
25,TGAACCGCGGTA,0.103

row,Sequence,binding signal (log2 normalized fluorescence)
1,CAATGTCTTAAC,0.198
2,TGACGTTCCGTA,0.0698
3,TGAGGGCTTGTA,0.0447
4,CTTCTCTGTCTC,-0.175
5,TGATTGCCGGTA,-0.021
6,TGAATGAACGTA,0.158
7,TGACACGTGCCG,0.783
8,TGACGATCCGTA,0.113
9,TCGTACGTGGTA,0.376
10,GTTCACGTGGTA,0.664
11,TGACCTGTCGTA,0.112
12,TCAAACATGGTA,0.362
13,TGATCTCACGTA,0.19
14,TGACCGGGAGTA,-0.00879
15,TGATCAAATGTA,0.101
16,TGATGTAGAGTA,-0.0941
17,TCACATGTGTTA,0.76
18,TGACCAATTGTA,0.0589
19,TGAGATACGGTA,-0.0397
20,TGATGTTCCGTA,0.196
21,TGAAACTTTGTA,-0.0223
22,TGACACGAGGTA,0.625
23,TGAATTCAGGTA,0.0452
24,TGACACGTGGAT,0.893
25,TGACACGTTGTA,0.534

row,Sequence,binding signal (log2 normalized fluorescence)
1,TAAGACTTGGTA,-0.0121
2,TGATAGTTGGTA,-0.284
3,TGATGTGGGGTA,0.239
4,TGACCACTCGTA,0.235
5,TGACAAACCGTA,0.206
6,TGAGAACTTGTA,-0.0261
7,TGAGAGGCGGTA,-0.0427
8,TGATCAATAGTA,0.00347
9,TGACACGTAGCT,0.399
10,TGAGCCCTAGTA,-0.0652
11,TGATGTGCGGTT,0.225
12,TGAGTATGCGTA,0.0402
13,TAACACCTGGTG,0.558
14,TGACAGACGGTA,0.133
15,TGAACAGTGGTA,-0.00322
16,GCTGACGCGGTT,0.13
17,TGACTCGTGGTA,0.557
18,TGACCCGGAGTA,0.0794
19,TGACACATGCAA,0.632
20,TGATCCAGCGTA,-0.0541
21,TGAGTATTTGTA,-0.123
22,TGAGGCTGAGTA,-0.0865
23,TGAAGTGCGGTA,0.348
24,TGATGTAGTGTA,0.0973
25,TGACTGTAAGTA,-0.0155

row,Sequence,binding signal (log2 normalized fluorescence)
1,TGAAATGGGTTT,0.155
2,TGATTGCACGTA,0.132
3,TGATGCACAGTA,0.149
4,TGACTCGTCGTA,0.0849
5,TGAGAGTCGGTA,-0.281
6,TGACATCGGGTA,0.234
7,TGAGCGGCCGTA,-0.108
8,TGACAAGCCGTA,-0.000872
9,TGAAACGTGTTA,0.678
10,TGATTGTAAGTA,-0.0911
11,TGAGGTGCGGTA,0.265
12,TGAGCTATGGTA,-0.0426
13,TGACGCCGTGTA,0.275
14,TGATCTTAAGTA,-0.0507
15,TGACGAAGTGTA,0.078
16,TCAAAAGTGGTA,0.0112
17,TTATACGTGATA,0.293
18,TGAGCGGCAGTA,0.0431
19,TGATACGGCGTA,-0.0658
20,TGAAACAGGGTA,0.207
21,TGATTCGTTGTA,0.0963
22,TGAGACCATGTA,0.234
23,TGATGCAATGTA,0.0212
24,TGATGTGAAGTA,-0.0253
25,TGATATTGCGTA,0.0584

row,Sequence,binding signal (log2 normalized fluorescence)
1,TGACCCTCTGTA,0.0911
2,TGATAAGGGGTA,0.0838
3,TGAAGGCGAGTA,-0.0219
4,TTACACGTGGCG,0.878
5,TGAGTGTTGGTA,0.0609
6,TGAGAACGTGTA,0.449
7,TGAGGAGATGTA,-0.126
8,TGAATAGCAGTA,-0.033
9,TGAACTGTAGTA,-0.0562
10,TAACACGTGGTA,0.946
11,TGAATTCGTGTA,0.379
12,TGACGTCGTGTA,0.338
13,TGAAACATTGTA,0.262
14,TGACCCGCTGTA,0.182
15,TGAAGTTTCGTA,0.0215
16,TGACTCAAGGTA,0.0877
17,TGACACGTAACA,0.468
18,TGATGCAGGGTA,0.0366
19,TGACGCGTCGTG,0.366
20,TGAACTGTTGTA,0.0311
21,TGAGGCTTCGTA,-0.0168
22,TGACCCGTCGGA,-0.0853
23,TGACAATGCGTA,0.338
24,TGATCATTAGTA,-0.0315
25,TGACAATTGGTA,0.0104

row,Sequence,binding signal (log2 normalized fluorescence)
1,TGGCAAGTGGTA,0.374
2,TGAGTTTGTGTA,-0.117
3,TGACCGGAAGTA,0.135
4,TGAGCATGAGTA,0.474
5,TGAAATGATGTA,0.168
6,TGATCCTTAGTA,-0.0535
7,TGAAAGGCAGTA,-0.0483
8,TGATGAGTAGTA,0.039
9,TGAGAAGGGGTA,0.248
10,TGAGAAAACGTA,-0.104
11,TGAAAACCTGTA,0.222
12,TGAAAATCCGTA,-0.0374
13,TTACACATGCTA,0.812
14,TGAAGCTACGTA,0.0596
15,TGAGTTTGCGTA,0.000556
16,TGAGTAAGGGTA,-0.103
17,TGAGACAGTGTA,0.101
18,TGACTGCTTGTA,0.107
19,TGAGAGGCCGTA,0.0066
20,TGACTGAGTGTA,0.0572
21,TGATGAAGGGTA,-0.106
22,TCTCAGGTGGTA,0.301
23,TGAAGGCCTGTA,0.18
24,TGACTCCCAGTA,-0.0472
25,TGAGAAAGAGTA,-0.29

row,Sequence,binding signal (log2 normalized fluorescence)
1,TGAGAGGTTGTA,0.0898
2,TGATTTCCAGTA,0.0193
3,TGAATATCCGTA,-0.0266
4,TGAAGTCATGTA,0.105
5,TGACACGGGTTT,0.321
6,TGAGGACGAGTA,-0.00251
7,TGAATGAAGGTA,0.113
8,TGGCACCTGGCA,0.319
9,TTACAGGTGGTT,0.396
10,TGACAACTGGTA,-0.0365
11,CCACACGTGGTG,0.705
12,TGAGAGGTCGTA,0.0079
13,TGAGGTTCGGTA,0.0606
14,TGATCTTTTGTA,-0.0479
15,TGAGTTTAGGTA,-0.0854
16,TGACCGGCGGTA,0.135
17,TGCCTCGTGGTA,0.797
18,TGAATGTCTGTA,0.216
19,TGATCGTTCGTA,0.0801
20,TGATACGACGTA,-0.0183
21,TGAGTCTAAGTA,-0.108
22,TGAGGCTGCGTA,0.0498
23,TGATTCCCTGTA,-0.0621
24,TGAGGGAATGTA,0.25
25,TGAAAAACAGTA,-0.0882

row,Sequence,binding signal (log2 normalized fluorescence)
1,TGATTGGCAGTA,-0.0446
2,TGATACAGAGTA,-0.122
3,TGATAAATTGTA,-0.0436
4,TGATTAGGGGTA,0.174
5,TGAAGTCGGGTA,-0.102
6,TGGCACGTGGTT,0.67
7,TGAGATCGGGTA,-0.127
8,TGAGCCAATGTA,0.00395
9,TGATTTCACGTA,0.111
10,TGATGATACGTA,0.00585
11,TGACACCTACTA,0.18
12,TGAGGTGCCGTA,0.158
13,TGAGCCCGGGTA,-0.174
14,TGACAATCGGTA,0.0244
15,TGAGGCTATGTA,-0.0462
16,TGAGCGTGAGTA,0.26
17,TGAAGATAGGTA,-0.132
18,TGACACGTTTGA,0.577
19,TGATTCCATGTA,0.122
20,TGAAATCGTGTA,0.24
21,TGAATCTTCGTA,0.00844
22,TGAATACCTGTA,0.159
23,TGACTGAACGTA,0.112
24,TGAATCGCGGTA,0.27
25,TAATTCGTGGTA,0.282

row,Sequence,binding signal (log2 normalized fluorescence)
1,TGACAGCAGGTA,0.122
2,TGATCAGCTGTA,0.181
3,TGAGACAGAGTA,-0.113
4,TGTCACCTGGTA,0.424
5,TGACACCAGGTA,0.225
6,GGACACGGGGTA,0.668
7,TGAGGGACGGTA,0.0602
8,TGACACTCCGTA,0.137
9,TGAAGACGTGTA,0.325
10,TGAGCCTTTGTA,-0.127
11,TGAACGCTGGTA,0.161
12,TGAAACCCCGTA,0.269
13,TGATGCAACGTA,0.297
14,TGATTCAAAGTA,-0.0864
15,TGAGGAAACGTA,0.074
16,TGACAACAAGTA,0.234
17,TGATGGCCGGTA,0.201
18,TGAGATCGAGTA,-0.0161
19,TGAGGTTATGTA,-0.0648
20,TGAGATGGGGTA,0.195
21,TGAGCGCAGGTA,0.113
22,TGAAGAGTAGTA,0.0724
23,GGACACGGTGTA,0.262
24,TGATATCTGGTA,-0.00821
25,TGAAGGACGGTA,-0.11

row,Sequence,binding signal (log2 normalized fluorescence)
1,TGACACGTGTAT,0.766
2,TGAATAATAGTA,0.0312
3,TGAAATTTAGTA,-0.187
4,TCACACGTGGGC,0.832
5,AGACACGTTGTA,0.628
6,TGAAAGTGGGTA,0.0518
7,TGACCCTCAGTA,-0.04
8,TGATAGACTGTA,0.0762
9,TGATAAGTTGTA,-0.0983
10,TGAGTCTCTGTA,-0.162
11,TGAATCATTGTA,0.0491
12,TGAGGCTTAGTA,-0.218
13,TGAGGTCCGGTA,-0.0494
14,TGATACTATGTA,0.052
15,CGCCACGTGGTA,0.88
16,TGGATCGTGGTA,0.28
17,TGAAGCCAGGTA,0.138
18,TGATATCCGGTA,-0.186
19,TGACACGGGGTC,0.583
20,TGAAATATCGTA,-0.00984
21,TGAAGATTCGTA,-0.165
22,TGATCGCTAGTA,-0.0289
23,TGAGACGTTGTA,0.23
24,TGAACAGGCGTA,-0.0122
25,TGAGTCTCGGTA,-0.0649

row,Sequence,binding signal (log2 normalized fluorescence)
1,TGAGTTAGTGTA,-0.0573
2,TGATTACCTGTA,-0.0585
3,TGAATTACGGTA,0.0239
4,TGATTTTCCGTA,-7.43e-05
5,TGAAACCTAGTA,0.0966
6,GGACACGTGGAG,0.745
7,TGAGTGTAAGTA,-0.0332
8,TGAGATGAAGTA,-0.216
9,TGACATCGCGTA,0.317
10,TGATCCAGTGTA,-0.0273
11,TGACCTCATGTA,0.575
12,TGACCGTGGGTA,0.187
13,TGATTCCCGGTA,-0.0528
14,TGATTCCCAGTA,-0.0291
15,TGACGACTGGTA,0.0584
16,TGACGTGATGTA,0.179
17,TGACTATGAGTA,-0.185
18,TGAGTCGCCGTA,-0.161
19,TGAATCCAGGTA,-0.118
20,TGAGAGTTAGTA,-0.177
21,CCAAGGCGGAAC,0.102
22,TGATGAAGAGTA,-0.0648
23,TGACACGTATCA,0.528
24,TGAATGACCGTA,0.157
25,TGAGTACTTGTA,-0.0922

# — PMC5515408
